The results in this text go back to the RNAGym collection of RNA variant scans (doi:10.7554/elife.90254).

B1: OR4K15 (parent)
chain: GUUAACGGUCAUAGGCCAUGGAAACUAGGAGCACCAUUUCGCUGCCAGUGAAGAAAUGAACAAAGAAAAUCUGGGCCAGGCAGGCAUCAAAAGAAAUAGUCUUGCGCUCAACCAGAAAGUCUGUAAUCAUUUUAAGGGUA

The source gives no read counts; variants with many changes may rest on few reads.

The data set covers variants of B1. The data set can be described thus: self-cleavage, relative activity (ratio to wild type); higher = more cleavage; in vitro, sequencing; the parent is a self-cleaving ribozyme.
GUUAACGGUCGUAGGCCAUGGAACCUAGGAGCACCAUUUCGCCGCCAGUGAAGAAAUGAACAAAGAAAAUCUGGGCCAGGCAGGCAUCAAAAGAAAUAGUCUUGCGCUCUACCAGAAAGUCUGUAAUCAUUUUAAGGGUA: the self-cleavage is 0.76. For GUUAACGGUCGUAGGCCAUGGAAACUAGGAGCGCCAUUUCGCUGCCAGUGAAGAAAUGAACAAGGAAAAUCUGGGCCAGGCAGGCAUCAAAAGAAAUAGUCUUGCGCUCAACCAGAAAGUCUGUAAUCAUUUUAAGGGUA the value was 0.85; for GUUAACGGUCGUAGGCCAUGGAAACUAGGAGCACCUUUUCGCUGCCAGUGAAGAAAUGAACAAAGAAAAUCUGGGCCAGGCAGGCAUCAAAAGAUAUAGUCUUGCGCUCAGCCAGAGAGUCUGUAAUCAUUUUAAGGGUA, 0.01.

GUUAACGGUCGUAGGCCAUGGAAACUAGGGGCACCAUUUCGCUGCCAGUGAAGAAAUGAACAGAGAAAAUCUGGGCCAGGCAGGCGUCAAAAGAAAUAGUCUUGCGCUCAACCAGAAAGUCUGUAAUCAUUUUAAGGGCG: the self-cleavage was 1.04.

Take GUUAACGGUCGUAGGCCAUGGAAACUAGGAGCGCCAUUCCGCUGCCAGUGAAGAAAUGAACAAAGAAAAUCUGGGCCAGGCAGGCAUCAAAAGAAAUAGUCUUGCGCUCAACCAGAAAGUCUGUAAUCAUUUUAAGGGUA: the self-cleavage was determined as 0.53. For GUUAACGGUCGUAGGCCAUGGAAACUAGGAGCACCGUUUCGCUGCCAGUGGAGAAAUGAACAAAGAAAAUCUGGGCCAGGCUGGCAUCAAAAGAAGUAGUCUUGCGCUCAACCAGAAAGUCUGUAAUCAUUUUAAGGGUA the value was 0.36; for GUUAACGGUCGUAGGCCAUGGAAACUAGGUGCACCAUUUCGCUGCCAGUGAAGAAAUGAACAAAGAAGAUCUGGGCCAGGCAGGCAUCAAGGGAAAUAGUCUUGCGCUCAACCAGAAAGUCUGCAAUCAUUUUAAGGGUA, 0.43; for GUUAACGGUCGUAGGCCAUGGAAACUAGGAGCACCGUUUCGCUGCCAGUGGAGAAAUGAACUAAGAAAAUCUGGGCCAGGCAGGCAUCAAAAGGAAUAGUCUUGCGCUCAACCAGAAAGUCUGUAAUCAUUUUAAGGGUA, 1.39. Take GUUAACGGUCGUAGGCCAUGGAAGCUAGGAGCACCAUUUCGCUGCCAGUGAAGAAAUGAACAAAGAAAAUCUGGGCCAGGCAGGCAUCAAAAGAAAUAGUCCUGCGCUCAACCAGAAAGUCUGUAAUCAUUUUAAGGGUA: the self-cleavage was determined as 1.1. Turning to GUUAACGGUCGUAGGCCAUGGAAACUAGGAGCACCAUUUCGCUGCCGGUGAAGAAAUGGACAAAGGAAAUCUGGGCCAGGCAGGCAUCAAAAGAAAUAGUCUUGCGCUCAACCAGAAAGUCUGUAAUCAUUUUAAGGGUA, the self-cleavage stood at 0.72.

Consider GUUAACGGUCGUAGGCCAUGGAGACUAGGAGCACCAUUCCGCUGCCAGUGAAGAAAUGAACAAAGAAAAUCUGGGCCAGGCAGGCAUCAAAAGAAAUAGUCUUGCGCUCAACCAGAAGGUCUGUAAUCAUUUUAAGGGUA, for which the self-cleavage stood at 0.26. The value for GUUAACGGUCGUAGGCCAUGGAAACUAGGGGCACCAUUUCGCUGCCAGUGAAGAAAUGAACAAAGAAAAUCUGGGCCAGGCAGGCACCAAAAGAAAUAGUCUUGCGCUCAACCAGAAAGUCUGUAAUCAUUUUAAGGGUA was 1.53; that for GUUAACGGUCGUAGGCCAUGGAAACUGGGAGCACCAUUUCGCUGCCAGUGAAGAAAUGGACAAAGAAAAUCUGGGCCAGGCAGGCAUCAAAAGAAAUAGUCUUGCGCUCAACCUGAAAGCCUGUAAUCAUUUUAAGGGUA was 0.03. As for GUUAACGGUCGUAGGCCAUGGAAACUAGGAGCUCCAUUUCGCUGCCAGUGAAGAAAUGAACAAAGAAAAUCUGGGCCAGGCAGGCACCAAAAGAACUAGUCUUGCGCACAACCAGAAAGUCUGUAAUCAUUUUAAGGGUA, the self-cleavage worked out at 0.05.

For GUUAACGGUCGUAGGCCAUGGAAGCUAGGAGCACCAUUUCGCUGCCAGUGAAGAAAUGAACAAAGAAAGUCUGGGCCAGGCAGGCAUCAGAAGAAAUAGUCUUGCGCUCAACCAGAAAGUCUGUAAUCAUUUUAAGGGUA, the self-cleavage stood at 1.07. For GUUAACGGUCGUAGGCCAUGGAAACUAGGAGCACCGUUUCGCUGCCAGUGAAGGAAUGAACAAAGAAAAUCUGGGCCAGGCAGGCAUCAAAAGAAAUAGUCUUGCGCUCAGCCAGAAAGUCUGUAAUCAUUUUAAGGGUA the value was 0.06; for GUUAACGGUCGUAGGCCAUGGAAACUAGGAGCUCCAUUUCGCUGCCAGUGAAGAAAUGAACAAAGAGAAUCAGGGCCAGGCAGGCAACAAAAGAAGUAGUCUUGCGCUCAACCAGAGAGUCUGUAAUCAUUUUAAGGGUA, 0.34; for GUUAACGGUCGUAGGCCAUGGAAACUAGGUGCACCACUUCGCUGCCAGUGAAGAAAUGAACAAAGAAAAUCUGGGCCAGGCAGGCAUCAAAAGAAAUAGUCUUGCGCUCAACCAGAAAGUCUGUAAUCAUUUUAAGGGUA, 1.32. As for GUUAACGGUCGUAGGCCAUGGAAACUAGGAGCACCGUUUCGCAGCCAGUGAAGAAAUGAACAAAGAAAAUCUGGGCCAGGCAGGCAUCAAAAGAAAUAGUCUUGCGCUCAACCAGAAAGUCUGUAAUCAUUUUAAGGGUA, the self-cleavage came out at 1.48. As to GUUAACGGUCGUAGGCCAUGGAAACUAGGAGCGCCAUUUCGCUGCCAGCGAGGAAAUGAACAAAGAAAAUCUGGGCCAGGCAGGCAUCAAAAGAAAUAGUCUUGCGCUCAACCAGAAAGUCUGUAAUCAUUUUAAGGGUA, the self-cleavage came out at 0.64.
